Laboratory results taken from the supplement of paper PMC3334620.
The full ranking holds about 33,000 sequences; the median of “E-score (-0.5 to 0.5)” is about -0.01, and the highest 2% start at about 0.26. The list shows a part of the results.

target: Ste12 (UniProt P13574); experiment: PBM E-score (8-mer binding enrichment) (E-score (-0.5 to 0.5)); higher = stronger / more preferred TF binding; most listed sequences are background and not binding sites; details: protein concentration: 200 nM; construct: GST-DNA-binding domain
Summary of the method: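 PURExpress in vitro transcription/translation supplied GST-tagged yeast transcription factors, either full-length or DNA-binding domain. Applied at about 100-200 nM to universal all-10-mer Agilent arrays double-stranded by primer extension, the bound protein was detected with fluorescent anti-GST. E-scores, modified Wilcoxon-Mann-Whitney statistics, were given by the Universal PBM Analysis Suite to ungapped eight-base words pooled with their reverse complements after masliner normalisation.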

Sequence | PBM E-score
CAGTCAGG | -0.0865
CTACTGCA | -0.283
ATCACTGA | -0.00791
ATCGTCAG | -0.146
AATAGACG | -0.0669
ATTGTGAG | -0.0545
ACGCCAAT | 0.125
CCTCGCAG | -0.00708
CCCTCATC | -0.0291
CTGTAAAG | -0.0336
CATGCGAA | 0.0971
CCGTGGAG | -0.132
CCTGCCCA | -0.0543
CAGTCCGA | -0.163
AAGCCGAT | 0.211
GGCCCAGA | -0.214
TTACAAAA | 0.301
ATAATCAC | 0.0891
CCTCTGAA | -0.00449
GGTATGAC | -0.0173
ATATGTTC | 0.178
CCTCGTCC | -0.0707
CCGTGCTC | 0.0452
GCCCCACC | 0.266
AGTGGCCC | -0.0466

Sequence | PBM E-score
CAATCCGA | 0.0925
AGCCTAAC | -0.0097
AAAGAATG | 0.159
GACCTGGA | -0.0741
AACCTCCT | -0.0887
GGACTAAC | -0.113
CAGTCGAG | -0.251
ACATAAAT | 0.195
AGGTCATA | -0.0555
CCAGTGCA | -0.246
CCGAGCTC | 0.0232
AGCAACAT | -0.0522
ACTACCCA | -0.0308
CCTGCGGC | -0.189
AAACCACC | 0.219
AGAAGATC | -0.0265
CCCCGGGA | 0.0622
GCTCTAGA | -0.227
ATGGACGA | 0.116
CTACTTGA | -0.014
ATGTGGAC | -0.14
CAGATCCC | 0.057
ATAAGATC | 0.0331
CACAACCG | 0.222
GGCAGCCA | 0.0916

Sequence | PBM E-score
CCTTCTTA | -2e-05
GAATATCA | 0.0514
CGTGAAGA | -0.206
CTGGACGC | -0.207
GGACCGGA | 0.0141
AGGACCGG | -0.188
ACCGGGAG | -0.0767
ATGTCTCC | -0.0509
TAACACTA | 0.171
ACCAAAAC | 0.235
TGAGATAA | 0.0769
GACGAGCA | -0.0774
ACGACAGA | 0.00071
GTGGAATA | 0.147
ACTCCGCG | -0.0382
CATGCTGG | -0.164
CTCTGATC | -0.00186
ATCCAAGA | 0.136
CGCCAAAA | 0.227
ACTTCGAC | 0.195
CATTCTTA | 0.0613
AGGAACTG | -0.0358
ACCGCCAA | 0.056
ACCGGCGC | 0.197
ATGTTGTG | -0.00637

Sequence | PBM E-score
GCGTAGAC | -0.262
CTGTTACC | -0.03
TATTCCAA | 0.0783
TCGACCAA | -0.111
GTGGCGTA | -0.136
ATGCGTCC | -0.126
ATAGTAAC | 0.0842
GGACGCAA | -0.0696
GCGAGCTA | -0.0339
AGAGTAAA | 0.0233
ACAGTCAA | -0.0061
ACGTTACT | 0.0576
CATTGTCG | -0.021
TCAAAGCA | 0.042
AACACAAA | 0.112
TAACAGTA | 0.164
CGCTACGA | 0.0421
CGTGCCCC | -0.0701
CACAGGAG | 0.0604
CTCGAACC | 0.00272
CTGTGTGC | -0.185
ATTGTTTA | 0.0651
GAACACTA | -0.13
AGGTATTG | 0.0861
ACGACCTC | 0.0198

Sequence | PBM E-score
CATTGTAG | 0.194
CTTGTTCC | -0.0735
GAAACTAC | 0.158
CCTCCAGC | -0.07
ATATACAT | 0.00017
CGTGTCAG | 0.133
AAATTCCT | -0.127
ATAGTTCG | 0.0431
CTGTGAAA | 0.322
CAGGCTAG | -0.117
ACGCACGA | 0.132
ACGTGCCA | -0.145
GGACCGTA | -0.156
ATCGTCTG | -0.0282
CCCGCGGG | 0.0996
GCACAGCA | -0.102
AACAACGT | 0.0627
AGACGATC | -0.0937
ACTGGGAC | -0.0908
CCGGAGTA | -0.0488
CATACCAA | -0.0054
CTGCGTTC | -0.0369
GCACAGAA | 0.0897
CATGCTAC | -0.185
AGGCCCAG | -0.0471

Sequence | PBM E-score
GATAGCCA | -0.119
CTGATAAA | 0.144
ACTATATA | 0.178
CCCGACCC | 0.118
ACCGAGTC | -0.268
ACCGACAG | -0.0168
GGCGCCAA | 0.0152
CGTCAGTC | -0.0824
AAGTTTCA | 0.437
CGCACACA | -0.0256
GCTTGCTA | -0.0442
AGTTGAGA | 0.0736
TATACTAA | -0.0408
ATATTCGG | 0.0214
ATTTACGC | 0.00034
GGCGGCCA | 0.0282
AGAGTCAG | -0.0656
ATTGTGTA | 0.274
AGCAGGAG | 0.0105
AACAAAGG | 0.188
CCGACTTA | -0.00776
CCACCACA | -0.0139
GTGTCGAA | 0.0683
ACATATCT | 0.0675
ACTTAGCC | -0.154

Sequence | PBM E-score
CGCTGTTA | 0.124
AATGTGTG | 0.177
CCTTGACA | -0.123
CTTTTTGA | 0.176
AGTGGGTG | 0.114
AACCCTGG | 0.0636
AGGTACGA | -0.0493
GAAGCCAC | -0.108
AAACAGCT | 0.0704
GAAGCAGA | -0.0485
GATGAATA | 0.166
CATTGCCG | -0.0916
AGTAGACA | -0.143
CCCGTCAA | -0.146
CACACTTC | 0.00873
AGATGATA | 0.218
AACCTAAA | 0.324
GCTACACA | -0.136
CTGGAAAC | 0.14
ACCGGCAG | -0.125
AACGACTC | -0.153
CAGCGCGC | 0.0555
